Data: PubChem BioAssay AID1476 (National Center for Advancing Translational Sciences (NCATS), 2009)
Out of some 200,000 compounds screened, about 4,500 (2.2%) were called active. Inconclusive means that the source gave no clear call. Such entries were picked first, then a sample of the others. Calls come from the whole dose curve; as a rule, active = well fitted inhibition curve with a large enough effect; inconclusive = small, poorly fitted or top-dose-only effect, or effect the other way; inactive = flat fitted curve, though single readings scatter. Potencies beside an inconclusive call are fits to weak or partial responses and may not hold up.
Note: nearly all actives have a fitted effect of over 40% in size.
Potency is the fitted concentration of half-maximal effect; tags give direction and shape of the fitted curve.
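Throughout, for max response, negative = inhibition: plate controls were enzyme without inhibitor for no effect and buffer without enzyme for full effect.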

The compounds below were run against Cruzipain (Trypanosoma cruzi) (UniProt P25779) (assay: qHTS Assay for Promiscuous and Specific Inhibitors of Cruzain (without detergent)). Details: purified cruzain, Z-FR-AMC fluorescence, no detergent.
UniProt P25779, sequence (P25779 whole entry, looked up): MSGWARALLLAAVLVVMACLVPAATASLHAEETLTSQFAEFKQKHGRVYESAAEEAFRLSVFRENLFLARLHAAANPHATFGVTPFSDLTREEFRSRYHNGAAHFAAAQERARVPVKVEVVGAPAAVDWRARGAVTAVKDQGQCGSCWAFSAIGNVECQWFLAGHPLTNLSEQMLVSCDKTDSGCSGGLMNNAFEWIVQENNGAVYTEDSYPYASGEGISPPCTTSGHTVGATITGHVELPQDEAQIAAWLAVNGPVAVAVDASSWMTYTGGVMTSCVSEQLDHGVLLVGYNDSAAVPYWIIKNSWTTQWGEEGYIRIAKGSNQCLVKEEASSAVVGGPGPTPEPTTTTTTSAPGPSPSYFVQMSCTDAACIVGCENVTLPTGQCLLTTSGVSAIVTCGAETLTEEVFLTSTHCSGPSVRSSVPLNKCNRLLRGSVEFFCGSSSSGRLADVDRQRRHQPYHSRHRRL
Summary of the method: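 Purified cruzain at 1.5 nM, pre-incubated 15 min with compound at room temperature in 100 mM sodium acetate pH 5.5, 5 mM DTT, 0.00005% Triton X-100. Reaction started with 2 uM Z-FR-AMC; AMC fluorescence increase over 60 s gives rate.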
For O=C(Nc1cc(Cl)cc(Cl)c1)c1ccc(F)c(S(=O)(=O)NCc2ccccc2Cl)c1, the Potency was inconclusive: 39.8 µM [inhibitor, single point].
With Cc1cc(C)c2oc(-c3ccc(C)c(NC(=S)NC(=O)c4cccs4)c3)nc2c1 the Potency was active: 7.94 µM.
In the case of O=C(c1cc(-c2cccnc2)nc2ccc(Br)cc12)N1CCN(c2ncccn2)CC1, the Potency is reported as inconclusive: 31.6 µM [activator, single point].
For Cc1ccc(N2CC(NC(=O)C3CCCCC3)CC2=O)cc1C (configuration not stated), the max response, negative = inhibition was inactive: -4.41%.
With O=S(=O)(Nc1ccccc1)c1ccc(Oc2ncc(C(F)(F)F)cc2Cl)cc1 the max response, negative = inhibition was inactive: 1.47%.
In the case of COc1ccc(S(=O)(=O)Nc2cccc(-c3ccc(N4CCCCCC4)nn3)c2)c(OC)c1, the Potency is reported as inconclusive: 39.8 µM [inhibitor, single point].
For CCOC(=O)Cn1nnnc1C(CC)N(Cc1cccs1)Cc1cc2ccc(OC)cc2[nH]c1=O (configuration not stated), the Potency was inconclusive: 25.1 µM [activator, single point].
COC(=O)C(CCSC)NC(=O)c1cc2c(n(-c3ccc(OC)cc3)c1=O)CC(C)(C)CC2=O (configuration not stated) was tested, and the Potency was inconclusive: 39.8 µM [activator, single point].
With CC1CCCCC1NC(=O)Cn1nnc(-c2ccc(Cl)cc2)n1 (configuration not stated) the Potency was inconclusive: 31.6 µM [inhibitor, single point].
In the case of CN(C)S(=O)(=O)c1ccc(C(=O)Nc2nnc(SCc3cccc(F)c3)s2)cc1, the Potency is reported as active: 3.98 µM.
CCn1cc(C(=O)OCC(=O)Nc2ccc(S(=O)(=O)N3CCCC3)cc2)c(=O)c2ccc(C)nc21 was tested, and the Potency was inconclusive: 3.98 µM [activator, single point].
O=C(NC1CCCC1)c1ccc2c(c1)N(Cc1ccccc1Cl)C(=O)c1ccccc1S2 was tested, and the Potency was inconclusive: 39.8 µM [inhibitor, single point].
With Cc1cc(C)c(NC(=O)CSc2ncc(S(=O)(=O)c3ccc(C(C)(C)C)cc3)c(=O)[nH]2)c(C)c1 the Potency was inconclusive: 6.31 µM [activator, single point].
For CCc1nnc(NC(=O)c2ccc(-c3ccc(Cl)cc3)o2)s1, the Potency was active: 15.8 µM.
In the case of CC(C)(C)CC(C)(C)c1ccc(OCCO)cc1, the Potency is reported as inconclusive: 15.8 µM [activator, full curve].
With O=c1[nH]c(NCCO)nc2c1C1(CCCCC1)Cc1ccccc1-2 the Potency was inconclusive: 31.6 µM [activator, partial curve].
For CC1Cc2cc(-c3csc(NC(=O)Cc4ccccc4)n3)ccc2N1S(C)(=O)=O (configuration not stated), the Potency was inconclusive: 39.8 µM [inhibitor, single point].
With CC(C)c1ccc(NC(=O)CSc2nc(=O)n(Cc3cccnc3)c3c2CCC3)cc1 the Potency was inconclusive: 31.6 µM [activator, single point].
In the case of CN1CCN(C(=O)Nc2cccc(Cl)c2)c2cccnc21, the max response, negative = inhibition is reported as inactive: -29.1%.
Cc1ccc(CNC(=O)C2CCCN(S(=O)(=O)c3ccc4c(ccn4C)c3)C2)cc1 (configuration not stated) was tested, and the Potency was inconclusive: 25.1 µM [inhibitor, single point].
Nc1ccc(C(=O)OCC(=O)N2CCc3ccccc3C2)cc1[N+](=O)[O-] was tested, and the Potency was active: 31.6 µM.
For CCc1cnc2c(c1SCC(=O)Nc1cc(Cl)ccc1OC)c(=O)n(C)c(=O)n2C, the max response, negative = inhibition was inactive: 0.0062%.
With COc1ccc(-c2noc(CSc3nnc(-c4ccc(Cl)cc4)n3C)n2)cc1OC the max response, negative = inhibition was inactive: -2.41%.
For CCOC(=O)c1sc2ccccc2c1S(=O)(=O)N1CCN(c2ccccc2)CC1, the Potency was active: 31.6 µM.
O=C(NCc1ccc(-c2nc3ccccc3s2)cc1)c1cc2ccccc2o1 was tested, and the Potency was active: 12.6 µM.
N/C(Cc1cccc2ccccc12)=N\OC(=O)c1cccs1 was tested, and the Potency was inconclusive: 39.8 µM [inhibitor, single point].
For CCc1cc(C(=O)N=Nc2c(O)[nH]c3c(Br)cc(Br)cc23)c2ccccc2n1, the Potency was inconclusive: 5.01 µM [inhibitor, single point].
With O=C(Nc1ccc2nc(SCC(=O)N3CCCC3)sc2c1)c1ccccc1F the max response, negative = inhibition was inactive: -8.05%.
In the case of COc1ccc(CNC(=O)c2c(Nc3ccccc3C)sc(C(=O)c3ccccc3)c2N)cc1, the Potency is reported as inconclusive: 3.98 µM [inhibitor, full curve].
With Cc1ccc(OCc2nc(-c3ccc(C(=O)NCCc4ccc(S(N)(=O)=O)cc4)cc3)oc2C)cc1 the max response, negative = inhibition was inactive: -8.9%.
In the case of CC1=C(C(=O)Nc2ccc(C)cc2C)C(c2ccc(C)o2)NC(=S)N1 (configuration not stated), the max response, negative = inhibition is reported as inactive: -7.16%.
With COc1ccc(-c2nc(CS(=O)CC(=O)NCCC3=CCCCC3)c(C)o2)cc1 (configuration not stated) the Potency was inconclusive: 31.6 µM [activator, single point].
CC(=O)c1ccc(-c2ccc(-c3cc(=O)oc4c(C(C)C)ccc(C)c34)cc2)cc1 was tested, and the Potency was active: 8.91 µM.
Cc1cccc(N2CCN(C(=O)c3ccc(NC(=O)c4nsc5ccccc45)cc3)CC2C)c1 (configuration not stated) was tested, and the Potency was inconclusive: 39.8 µM [inhibitor, single point].
CCOc1ccc(Cl)cc1C1CC(=O)Nc2cc(OC)c(OC)c(OC)c21 (configuration not stated) was tested, and the max response, negative = inhibition was inactive: -7.43%.
In the case of CN1C(=O)C2(C(C#N)=C(N)N(c3ccc(Cl)cc3)C3=C2C(=O)CC(C)(C)C3)c2ccccc21 (configuration not stated), the Potency is reported as inconclusive: 39.8 µM [activator, single point].
For Cc1ccc(S(=O)(=O)c2nc(Nc3ccccc3C#N)sc2Cl)cc1, the Potency was inconclusive: 39.8 µM [inhibitor, single point].
With COC(=O)c1ccc(-c2ncc(-c3cccc4ccccc34)o2)cc1 the Potency was inconclusive: 25.1 µM [inhibitor, single point].
With COC(=O)[C@@]1(Cc2ccccc2)[C@H]2c3cc(C(=O)N(C)C)n(Cc4cc(C)n(C)n4)c3C[C@H]2CN1C(=O)c1ccccc1 the Potency was inconclusive: 10 µM [activator, partial curve].
COc1ccccc1N/C(N)=N/c1nc(CSc2nc3ccccc3s2)cc(=O)[nH]1 was tested, and the Potency was inconclusive: 31.6 µM [inhibitor, single point].
For Cc1cccc(Nc2nnc(SCC(=O)Nc3cccnc3Cl)s2)c1, the Potency was active: 15.8 µM.
In the case of Cc1ccc(-c2cc3nc(-c4ccccc4)cc(N4CCC5(CC4)OCCO5)n3n2)cc1, the Potency is reported as inconclusive: 1 µM [inhibitor, full curve, poor fit].
For CCOC(=O)N1CCN(c2ncnc3c2oc2nc(C)c4c(c23)CC(C)(C)OC4)CC1, the Potency was inconclusive: 39.8 µM [activator, single point].
In the case of COc1ccc(CC(NC(C)=O)C(=O)N2CCN(C(=O)Nc3ccc(Cl)cc3)CC2)cc1OC (configuration not stated), the Potency is reported as inconclusive: 31.6 µM [activator, single point].
N#Cc1c(NC(=O)CSc2nnc(-c3ccccc3O)n2-c2ccccc2)sc2c1CCCC2 was tested, and the Potency was active: 3.98 µM.
In the case of COC(=O)[C@@]1(Cc2ccc(F)cc2)[C@@H]2C(=CC(=O)[C@H]2CC(=O)C(=O)N(C)C)CN1C(=O)c1ccccc1, the Potency is reported as inconclusive: 25.1 µM [activator, partial curve].
With O=C1CC(N2CCN(S(=O)(=O)c3cccc(C(F)(F)F)c3)CC2)C(=O)N1Cc1ccccc1 (configuration not stated) the Potency was inconclusive: 25.1 µM [activator, single point].
With Cc1ccc(CCNC(=O)c2ccc(CSCc3ccccc3C)o2)cc1 the max response, negative = inhibition was inactive: -10.4%.
In the case of COc1ccccc1CNC(=O)CS(=O)Cc1nc(-c2ccc(OC)c(OC)c2)oc1C (configuration not stated), the Potency is reported as inconclusive: 39.8 µM [activator, single point].
For COc1ccc2c(c1)C(=O)[C@H](OC(=O)NS(=O)(=O)c1ccc(F)cc1)[C@@H](c1ccc(OC)c(Br)c1)O2, the max response, negative = inhibition was inactive: -1.74%.
With Cc1ccc(S(=O)(=O)N/N=C2/CC(c3ccccc3)Oc3ccccc32)cc1[N+](=O)[O-] (configuration not stated) the Potency was inconclusive: 39.8 µM [inhibitor, single point].
COc1ccc(C(OCCN2CCC[C@@H](C(=O)O)C2)(c2ccc(OC)cc2)c2ccc(OC)cc2)cc1 was tested, and the Potency was inconclusive: 20 µM [activator, full curve, poor fit].
Oc1ccccc1Nc1ncnc2c1oc1ccccc12 was tested, and the Potency was inconclusive: 39.8 µM [inhibitor, single point].
CC(C)(C)c1ccc(-c2nnc(SCC(=O)Nc3sc4c(c3C#N)CCCC4)o2)cc1 was tested, and the Potency was inconclusive: 20 µM [inhibitor, partial curve, poor fit].
In the case of Cc1oc(-c2nc3ccccc3n2C)cc1C(=O)c1ccccc1, the Potency is reported as inconclusive: 0.794 µM [inhibitor, full curve, poor fit].
For CCOC(=O)c1sc(=NC(=O)c2ccc(S(=O)(=O)N3CC(C)OC(C)C3)cc2)n(C)c1C (configuration not stated), the Potency was inconclusive: 15.8 µM [activator, partial curve].
With Cn1cnc2c(=O)oc3ccc(S(=O)(=O)N4CCN(c5cccc(Cl)c5)CC4)cc3c21 the max response, negative = inhibition was inactive: -1.71%.
For CN1CCN(c2ncnc3ccc(-c4ccccc4Cl)cc23)CC1, the max response, negative = inhibition was inactive: 9.03%.
For Cc1nc2cc(-c3ccccc3)nn2c(C)c1CCC(=O)N1CCN(c2ccccc2)CC1, the Potency was inconclusive: 7.94 µM [activator, full curve].
CC(=O)O[C@H]1CC[C@H]2[C@@H]3CCC4=C[C@@H](C5SCCS5)[C@H](OC(C)=O)C[C@]4(C)[C@H]3CC[C@@]12C was tested, and the max response, negative = inhibition was inactive: -7.62%.
For CCOC(=O)c1ccc(NC(=O)Cn2cc(C(=O)c3ccc(Cl)cc3)c(=O)c3ccc(C)nc32)cc1, the max response, negative = inhibition was inactive: 12.7%.
For Cc1cccc(NC(=O)c2cc(S(=O)(=O)N3CCC4(CC3)OCCO4)ccc2F)c1, the Potency was inconclusive: 39.8 µM [activator, single point].
